Test results reported in the RNAGym collection of RNA variant scans (doi:10.7554/elife.90254).
The source gives no read counts; variants with many changes may rest on few reads.

B1: LINE1-mini (parent)
chain: GGCAGAGCUCAACACAGCGUGGCAAAGUGGCUGUGGCUAGACUGCC

Variants of: B1
Assay: self-cleavage, relative activity (ratio to wild type); higher = more cleavage; in vitro, sequencing; the parent is a self-cleaving ribozyme

Variant	self-cleavage
GACAGAGCUCAACACAGCGUGGCAAAGGGGCUGUGGCUAGGCUUCC [G2A U28G A41G G44U]	0.19
GACAGAGCGCCACACAGCGUGGCAAAGUCGGUGUGGCUAGACUGAC [G2A U9G A11C G29C C31G C45A]	0
GACAGAGCUCAACACAGCGUGGCAAAGUGGCUGUGGCUAGACAGAC [G2A U43A C45A]	0.52
GACAGAGCGCAACACAGAGUGGCAAAGUGGAUGUGGCUAGACUGCC [G2A U9G C18A C31A]	0.15
GACAGAGCACAACACAGCGUGGCAAAGUGGCUGUGGCUAGAUUGCC [G2A U9A C42U]	0.45
GACAGAGCACAACAUAGCGUGGCAAAGUGGCUGUGGCCCGACUGCC [G2A U9A C15U U38C A39C]	0.12
GACAGAGCGCAACACAGCGUGGUUAACUGGGCGUCGCUAGACUGCC [G2A U9G C23U A24U G27C C31G U32C G35C]	0.02
GACAGAGCUCAACACAGCGUGGCAAAGUGGCUGCGGCUAGACUAUC [G2A U34C G44A C45U]	0.09
GCCCGAGCUCAACACAGCGUUGAAAAGUGGCUGUGGCUAGACUGCC [G2C A4C G21U C23A]	0.04
GACAGAGCGCAACGCAGCGUGGCAAAGUGGCUGUUGCUAGACUGCC [G2A U9G A14G G35U]	0.16
GCCGGAGCUCAACACCGCGUGGCAAAGUGGCUGUGGCUAGACUGCC [G2C A4G A16C]	0.02
GACAGAGCUCAACACAGCGUGGCAAAGUGGCCCUGGCUAGACUGCC [G2A U32C G33C]	0.07
GACAGAGCCAACCACAACGUGGCAAAGUGGUUCUGCCUAGACUGCC [G2A U9C C10A A12C G17A C31U G33C G36C]	0
GACAGAGCAGAACACAGCGUGGCAAAGUGGCUGUCGCUAGACUGCC [G2A U9A C10G G35C]	0.04
GACAGAGCACAACACAGCGUGGCAAAUUGGCUGAGGCUAGACUGCU [G2A U9A G27U U34A C46U]	0.4
GACAGAGCCCAACACAGCGUGGCAAAGUGUCUGUGGCUAGACUGCC [G2A U9C G30U]	0.03
GCCCGAGCUCAACACAGCGUGGCAAAGUAGCUGUGGCUAGACUGCC [G2C A4C G29A]	0
GACAGAGCUCAACACAGCGUGGCAAAGUGGCAGCGGCUAGAAUGCC [G2A U32A U34C C42A]	0.05
GCCCGAGCUCAACACAGCGUGGCAAAGUGGAUGUGGCUAGACUGCC [G2C A4C C31A]	0.06

Variant	self-cleavage
GCCCGAGCUCAACACAGCGUGGCGAAGUGGCUGUGGUUAGUCUGCC [G2C A4C A24G C37U A41U]	0.04
GACAGAGCACAACACAGCUUGGCAAAGUGGCUGUGGCUAGACUGCC [G2A U9A G19U]	0.24
GACAGAGCACAACACAGCGUGGCAAAGUGGCUGUGGCGAGACUGCC [G2A U9A U38G]	0.12
GACAGAGCACAACACAGCGUGACAAAGUGGCUGCGGCUAGCCUGCC [G2A U9A G22A U34C A41C]	0.13
GACAGAGCUCAACACAGCGUGGCAAAGUGGCUGAGGCUAGACUCCC [G2A U34A G44C]	0.02
GACAGAGCUCAACACAGCGGGGCAAAGUGGCUGAGGCUAGACUGUC [G2A U20G U34A C45U]	0.11
GACAGAGCACAACACAUCGUGGCAAAGUGGCUGUGUCUAGACUGAC [G2A U9A G17U G36U C45A]	0.05
GCCCGAGCGCAAAACAGCCUGGCAAAGUGGCUGUGGCUAGACUGCC [G2C A4C U9G C13A G19C]	0.22
GACAGAGCUCAACACAGCGUGGCAAAGUGGCUGAGGCCAGACUGCC [G2A U34A U38C]	0.29
GACAGAGCACAACACAGCGUGGCAAAGUGGCUGUGCCUAGACUGCC [G2A U9A G36C]	0.02
GACAGAGCUCAACACAGCGAGCCAAAGUGGCUGUAGCUAGACUGCC [G2A U20A G22C G35A]	0.26
GACAGAGCUCAACACAGCGUGGCAAAGUGGCCGUGGCUGGACUGCC [G2A U32C A39G]	0.05
GACAGAGCGCAACAGAGCGUGGCAAACUGGAUCCGGCUAGACUGCC [G2A U9G C15G G27C C31A G33C U34C]	0.02
GACAGAGCUCAACACAGCGUGGCAAAGUGGCAGUGGCUAUAGUGCG [G2A U32A G40U C42G C46G]	0.09
GACAGAGCACAACUCAGCGUGGCAAAGUGGCUGUGGCCAGACUGCC [G2A U9A A14U U38C]	0.35
GACAGAGCUCAACACAGCGGGGCAAAAUUGCUGUGGCUAGACUGCC [G2A U20G G27A G29U]	0.49
GCCCGAGCUCAACACAGCGUGGCAAAGUGGCUCAGGCUCGACUGCC [G2C A4C G33C U34A A39C]	0.01
GACAGAGCGCAACACAGCGUGGCAAAGUUGCUGUGGCUAGAAUGCC [G2A U9G G29U C42A]	0.1
GACAGAGCCCAACACAGCGUGGCAAAGUGGCUGUGGAUAGACUGCC [G2A U9C C37A]	0.01

Variant	self-cleavage
GACAGAGCUCAACACAGCGCGGCAAAGUGGCCGUGGCUAGACUGCC [G2A U20C U32C]	0.1
GACAGAGCGCAACACAGUGUGGCAAAGUGGCUGUGGCAAGACUGCC [G2A U9G C18U U38A]	0.03
GCCGGCUCUCAACACAGCUUGGCAAAGUUGAUGUGGCUAGACUGCC [G2C A4G A6C G7U G19U G29U C31A]	0.06
GACAGAGCCGAACACAGCGGGGCAAAGUGGCUGUGGCUAGACUGCC [G2A U9C C10G U20G]	0.09
GACAGAGCUCAACACAGCGUGGCAAAGUGGCUGAGCCUAGACUGCC [G2A U34A G36C]	0.05
GACAGAGCUCAACACAGCGUGGCAAAGUGGCUGAGACUAGACUGCC [G2A U34A G36A]	0.05
GACAGAGCUCAACACAGCGUGGCAAAGUGGCCGUUGCUAGACUGUC [G2A U32C G35U C45U]	0.4
GCCCGAGCUAAGCACAGCGUGGCAAAGUGCCUGUGGCUAUACUGCC [G2C A4C C10A A12G G30C G40U]	0.01
GACAGAGCUCAACACAGCGAGGCAAAGUAGCUGUGGCUUUACUGCC [G2A U20A G29A A39U G40U]	0.13
GACAGAGCCCAACCCAGCGUGGCAAAGUGGCUGUGGCUAGACUGCC [G2A U9C A14C]	0.08
GACAGAGCCAAACACAGCGUGGCAAAGUGGCUGUGGCUAGACUGCC [G2A U9C C10A]	0.02
GACAGAGCGCAACACAGCGUGGCAAAGUGGCUGUGGCUAGUCUGAC [G2A U9G A41U C45A]	0.1
GACAGAGCCAAACACAGCGUGGCAAAAUGGCGGGGGCUAGACUGCC [G2A U9C C10A G27A U32G U34G]	0.01
GACAGAGCGCAACACAGCGUGGCAAAGUGGCUGUGACUAGACUGCC [G2A U9G G36A]	0.96
GACAGAGCACAACACAGCAUGGCAAAGUGGCUGUGGCUAGAUUGCC [G2A U9A G19A C42U]	0.11
GACAGAGCGCAACACAACGCGGCAAAGUCGCUGAGGCUAGACUGCC [G2A U9G G17A U20C G29C U34A]	0.12
GACAGAGCCCAACACAGCGAGGCAAAGUGGCUGUGGCUAGACUGCC [G2A U9C U20A]	0.04
GACAGAGCACAACACAGCGUGGAAAAGUGGCUGUGGCUAGACUGCC [G2A U9A C23A]	0.29
